According to EPA's CvTdb concentration-time database:

What was measured:
Mouse [1] = assay: concentration in plasma after dosing; settings: 10 min; dosed: Benzophenone; 15 mg/kg; iv; Female; B6C3F1
Mouse [2] = assay: concentration in plasma after dosing; settings: 1.5 h; dosed: Benzophenone; 30 mg/kg; oral; Female; B6C3F1
Mouse [3] = assay: concentration in plasma after dosing; settings: 4 min; dosed: Benzophenone; 15 mg/kg; iv; Female; B6C3F1
Mouse [4] = assay: concentration in plasma after dosing; settings: 5 min; dosed: Benzophenone; 15 mg/kg; oral; Male; B6C3F1
Mouse [5] = assay: concentration in plasma after dosing; settings: 3 h; dosed: Benzophenone; 15 mg/kg; iv; Male; B6C3F1
Mouse [6] = assay: concentration in plasma after dosing; settings: 0.125 h; dosed: Benzophenone; 60 mg/kg; oral; Female; B6C3F1
Mouse [7] = assay: concentration in plasma after dosing; settings: 0.5 h; dosed: Benzophenone; 15 mg/kg; iv; Male; B6C3F1
Mouse [8] = assay: concentration in plasma after dosing; settings: 1 h; dosed: Benzophenone; 15 mg/kg; oral; Female; B6C3F1
Mouse [9] = assay: concentration in plasma after dosing; settings: 0.125 h; dosed: Benzophenone; 15 mg/kg; oral; Male; B6C3F1
Mouse [10] = assay: concentration in plasma after dosing; settings: 4 h; dosed: Benzophenone; 15 mg/kg; oral; Female; B6C3F1
Mouse [11] = assay: concentration in plasma after dosing; settings: 6 h; dosed: Benzophenone; 60 mg/kg; oral; Male; B6C3F1
Mouse [12] = assay: concentration in plasma after dosing; settings: 6 h; dosed: Benzophenone; 60 mg/kg; oral; Male; B6C3F1; remark: listed apart in the source
Mouse [13] = assay: concentration in plasma after dosing; settings: 10 min; dosed: Benzophenone; 15 mg/kg; iv; Male; B6C3F1
Mouse [14] = assay: concentration in plasma after dosing; settings: 0.25 h; dosed: Benzophenone; 30 mg/kg; oral; Female; B6C3F1
Rat [15] = assay: concentration in plasma after dosing; settings: dosed: Benzophenone, 10 mg/kg, oral, Female, F344
Mouse [16] = assay: concentration in plasma after dosing; settings: 0.5 h; dosed: Benzophenone; 15 mg/kg; oral; Male; B6C3F1
Mouse [17] = assay: concentration in plasma after dosing; settings: 2 h; dosed: Benzophenone; 15 mg/kg; iv; Male; B6C3F1
Mouse [18] = assay: concentration in plasma after dosing; settings: 1.5 h; dosed: Benzophenone; 15 mg/kg; iv; Male; B6C3F1
Rat [19] = assay: concentration in blood after dosing; settings: 0.125 h; dosed: Benzophenone; 10 mg/kg; oral; Female; F344
Rat [20] = assay: concentration in plasma after dosing; settings: dosed: Benzophenone, 5 mg/kg, oral, Male, F344
Mouse [21] = assay: concentration in plasma after dosing; settings: 1 h; dosed: Benzophenone; 15 mg/kg; oral; Male; B6C3F1
Mouse [22] = assay: concentration in plasma after dosing; settings: 5 min; dosed: Benzophenone; 30 mg/kg; oral; Male; B6C3F1
Mouse [23] = assay: concentration in plasma after dosing; settings: 2 h; dosed: Benzophenone; 15 mg/kg; iv; Male; B6C3F1; remark: listed apart in the source
Mouse [24] = assay: concentration in plasma after dosing; settings: 10 min; dosed: Benzophenone; 60 mg/kg; oral; Male; B6C3F1
Mouse [25] = assay: concentration in plasma after dosing; settings: 2.5 min; dosed: Benzophenone; 60 mg/kg; oral; Male; B6C3F1
Rat [26] = assay: concentration in blood after dosing; settings: 0.125 h; dosed: Benzophenone; 5 mg/kg; oral; Male; F344
Mouse [27] = assay: concentration in plasma after dosing; settings: 3 h; dosed: Benzophenone; 15 mg/kg; iv; Male; B6C3F1; remark: listed apart in the source
Mouse [28] = assay: concentration in plasma after dosing; settings: 2 h; dosed: Benzophenone; 30 mg/kg; oral; Male; B6C3F1
Mouse [29] = assay: concentration in plasma after dosing; settings: 0.75 h; dosed: Benzophenone; 15 mg/kg; iv; Male; B6C3F1
Rat [30] = assay: concentration in blood after dosing; settings: 10 min; dosed: Benzophenone; 5 mg/kg; oral; Female; F344
Rat [31] = assay: concentration in plasma after dosing; settings: dosed: Benzophenone, 10 mg/kg, oral, Male, F344
Mouse [32] = assay: concentration in plasma after dosing; settings: 0.5 h; dosed: Benzophenone; 15 mg/kg; iv; Female; B6C3F1
Rat [33] = assay: concentration in plasma after dosing; settings: dosed: Benzophenone, 10 mg/kg, oral, Male, F344; remark: listed apart in the source
Mouse [34] = assay: concentration in plasma after dosing; settings: 6 h; dosed: Benzophenone; 60 mg/kg; oral; Female; B6C3F1
Mouse [35] = assay: concentration in plasma after dosing; settings: 2.5 min; dosed: Benzophenone; 30 mg/kg; oral; Male; B6C3F1
Mouse [36] = assay: concentration in plasma after dosing; settings: 0.25 h; dosed: Benzophenone; 15 mg/kg; iv; Male; B6C3F1
Rat [37] = assay: concentration in blood after dosing; settings: 0.25 h; dosed: Benzophenone; 5 mg/kg; oral; Male; F344
Mouse [38] = assay: concentration in plasma after dosing; settings: 2.5 h; dosed: Benzophenone; 15 mg/kg; iv; Female; B6C3F1
Rat [39] = assay: concentration in blood after dosing; settings: 0.5 h; dosed: Benzophenone; 10 mg/kg; oral; Male; F344
Mouse [40] = assay: concentration in plasma after dosing; settings: 0.75 h; dosed: Benzophenone; 15 mg/kg; iv; Male; B6C3F1; remark: listed apart in the source
Rat [41] = assay: concentration in plasma after dosing; settings: dosed: Benzophenone, 10 mg/kg, oral, Female, F344; remark: listed apart in the source

O=C(c1ccccc1)c1ccccc1 [Benzophenone]
Settings | concentration in blood [ng/mL] | concentration in plasma [ng/mL]
Mouse [1] | – | 2640
Mouse [2] | – | 692
Mouse [3] | – | 4820
Mouse [4] | – | 292
Mouse [5] | – | 52.3
Mouse [6] | – | 1460
Mouse [7] | – | 913
Mouse [8] | – | 187
Mouse [9] | – | 755
Mouse [10] | – | 33.7
Mouse [11] | – | 57.9
Mouse [12] | – | 44
Mouse [13] | – | 2930
Mouse [14] | – | 1500
Mouse [16] | – | 252
Mouse [17] | – | 61.6
Mouse [18] | – | 163
Mouse [21] | – | 132
Mouse [22] | – | 1500
Mouse [23] | – | 118
Mouse [24] | – | 3740
Mouse [25] | – | 1680
Mouse [27] | – | 175
Mouse [28] | – | 162
Mouse [29] | – | 528
Mouse [32] | – | 2380
Mouse [34] | – | 104
Mouse [35] | – | 1590
Mouse [36] | – | 3590
Mouse [38] | – | 46.2
Mouse [40] | – | 504
Rat [19] | 2140 | –
Rat [26] | 389 | –
Rat [30] | 606 | –
Rat [37] | 841 | –
Rat [39] | 1480 | –

Settings | concentration in plasma [ng/mL]
Rat [15], 6 h | 152
Rat [15], 10 min | 383
Rat [20], 0.5 h | 172
Rat [20], 10 h | 53.4
Rat [31], 6 h | 130
Rat [31], 10 min | 348
Rat [33], 2 h | 290
Rat [33], 5 min | 508
Rat [41], 1 h | 216
Rat [41], 2.5 min | 39.6
